# From paper PMC12040169 (PLOS Biology, 2025)
# Some of the results follow.
# Tested on: T1, C. trachomatis L2/434/Bu expressing GFP (CTL2-GFP)
# T1 construct: L2/434/Bu GFP intracellular growth in HeLa cells
# Parameters: species or system HeLa; C. trachomatis total inclusion area by high-content imaging, normalised to DMSO
# Conditions: total inclusion area; 28.5 h, 10 µM; inhibitor
# Outline: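 High-content imaging followed the bulk GFP/resorufin measurement: fixed, Hoechst-stained cells were scored for GFP inclusions and host nuclei per well. Total inclusion area and count served as growth proxies, nuclei number as the viability proxy. MIC calculation matched the bulk assay.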
row,SMILES,% of control remaining
1,CC1CCCN(CC(O)c2ccc3c(c2)CCCN3C(=O)C2CC2)C1 (stereo not shown) [CBK282136],82.6745
2,Cc1c(Cl)c([N+](=O)[O-])nn1CCCC(=O)Nc1cc(Br)ccc1O [CBK268875],95.1726
3,CC[C@H](Cn1nc(-c2cccs2)ccc1=O)NC(=O)C(C)C [CBK284296],79.6374
4,N#CCCn1cc(C(=O)Nc2ccc(C(=O)O)cc2)c(-c2cc3ccccc3o2)n1 [CBK267866],109.437
5,CCN(CC)CCCNC(=O)N1CCN(Cc2ccccc2)CC1 [CBK155655],96.3358
6,CCOc1ccc(C(N)CC(=O)O)cc1 (stereo not shown) [CBK262933C],82.956
7,CCN1CCN(c2ccc(NC(=O)c3cccnc3)cc2Cl)CC1 [CBK266629C],113.492
8,Cc1cc(C)cc(Oc2coc3c(CN4CCOCC4)c(O)ccc3c2=O)c1 [CBK263908],110.868
9,O=C(CCCOc1ccc(Cl)cc1Cl)NO [CBK288436],88.4142
10,CCCNc1nccnc1-c1ccccc1F [CBK037231],113.298
11,O=C(NCC1COc2ccccc2O1)c1ccc2[nH]ccc2c1 (stereo not shown) [CBK149054],85.2194
12,COc1ccccc1C(NC(=O)C1CCN(CCc2c[nH]c3ccccc23)CC1)c1ccccn1 (stereo not shown) [CBK147923],97.2621
13,COc1ccc2c(c1)CC(=O)NC21CCN(C(=O)NC(C)C)CC1 [CBK047261],97.1955
14,NC(=O)c1ccc(NC(=O)N2CCN(CCc3ccccc3)CC2)cc1 [CBK158924],96.4145
15,COc1ccc(-c2cc(C(=O)Nc3ccc(CCO)cc3)cnc2-c2cccc(C)c2)cn1 [CBK037461],111.698
16,Cc1cc(Cl)c(S(=O)(=O)N2CCCC2)cc1OCC(=O)NC1CCCCC1 [CBK266781],96.7781
17,CC(NC(=O)c1ncoc1-c1ccccc1)c1ccccn1 (stereo not shown) [CBK283889],98.3836
18,COc1cccc2sc(Nc3nc4c(s3)C(=O)CC(C)(C)C4)nc12 [CBK287467],64.1502
19,CN(C)S(=O)(=O)N(C)c1ccc(C(=O)O)cc1 [CBK287244],84.1591
20,Cc1ccc(CN2CCC3(CCCNC3=O)CC2)cc1 [CBK284822],94.503
21,O=C(c1cc(-c2ccc(Cl)cc2)[nH]n1)N1CCNCC1 [CBK116548],55.2469
22,CCCC1CCCN(Cc2nnnn2-c2ccc(S(C)(=O)=O)cc2)C1 (stereo not shown) [CBK304142],57.6993
23,CCn1c(CN2CCCC2c2nc(N(C)C)ncc2-c2ccccc2)nc2ccccc21 (stereo not shown) [CBK286070],73.2615
24,CCOC(=O)N1COC[C@@H]1C(=O)O [CBK010379],27.0811
25,O=C(O)c1cc(S(=O)(=O)N2CCCCC2)ccc1O [CBK286595],63.9548
26,CCOC(=O)c1ccc(-n2c(CCC(=O)O)ccc2-c2cccs2)cc1O [CBK266015],73.2018

row,SMILES,% of control remaining
1,C/C(=N/Nc1nc[nH]n1)c1ccc(Cl)c(Cl)c1 [CBK028722],25.38
2,CCCCSc1cc(C)nc2ncnn12 [CBK021443],110.346
3,CCc1ccc(CN2CCN(C(=O)c3ccncc3)CC2)cc1 [CBK301211G],100.462
4,COc1cc(C=CC(=O)O)ccc1OCC(=O)N1CCN(CC(=O)NC(C)(C)C)CC1 [CBK296987],82.1747
5,O=C(c1ccc(N2CC=CCC2)nc1)N1CCC(N2CCOCC2)CC1 [CBK307334],98.5115
6,CN(C)CCNC(=O)c1cccc(Oc2ccccc2)c1 [CBK270310],85.4326
7,CC(=O)N1C[C@@H](c2ccsc2)[C@@H]2CN(Cc3ccccc3)CC[C@@H]21 [CBK284585],82.6257
8,Cc1cc(-c2nnc(SCC(=O)N3CCCCC3)o2)no1 [CBK268731],107.442
9,O=C(CSc1nc2ccccc2c2nc3ccccc3n12)Nc1cccc(Cl)c1 [CBK267872],112.919
10,C=CCn1c(Cc2csc(NC(=O)c3cccc([N+](=O)[O-])c3)n2)n[nH]c1=S [CBK295339],105.739
11,Cc1cccc(-c2ncc(NC(=O)C3CC3)nc2-c2cccnc2)c1 [CBK037134],74.3256
12,CC1(C)OC(=O)C(=CNC(CCC(=O)O)C(=O)O)C(=O)O1 (stereo not shown) [CBK263510],100.761
13,COC(=O)[C@H]1CN(C(=O)c2cccs2)C[C@@H]1c1ccccc1F [CBK283775],87.1011
14,COc1ccc(C(=O)O)cc1N1C(=O)CC(c2c(C)nn(-c3ccccc3)c2N)C1=O (stereo not shown) [CBK291120],97.6433
15,CC(C)S(=O)(=O)N1CCC(n2c(=O)[nH]c3ccccc32)CC1 [CBK149693],96.3814
16,CCC(CC)C(=O)Nc1ccc([C@@H](O)[C@H]2COCC(=O)N2CC)cc1 [CBK289684],105.044
17,Cc1cc(C(=O)N(C)C2CCCCC2)no1 [CBK057375],83.8785
18,CC(=O)N1C[C@H](O)C[C@H]1C(=O)N1CC[C@H]2NC(=O)[C@H](Cc3ccccc3)NC(=O)C3(C/C=C/C[C@H]2C1)CCOCC3 [CBK292204],97.8435
19,COc1ccc(CCOc2nccnc2-c2ccsc2)cc1 [CBK106775],16.067
20,O=C(Cc1ccc(F)cc1F)Nc1ccc2cc[nH]c2c1 [CBK160044],145.229
21,CC(C)(C)c1ccc(S(=O)(=O)N/N=C\c2ccc(Cl)cc2Cl)cc1 [CBK264759],103.669
22,CCOc1ccc2nc(NS(=O)(=O)c3cc(C(=O)O)c(Cl)cc3Cl)sc2c1 [CBK299789],114.947
23,CCOC(=O)c1c(NC(=O)Cn2nc(C(F)(F)F)c(Cl)c2C)sc2c1CCCC2 [CBK263019],98.4892
24,O=C(c1cc(CO)ccn1)N(Cc1ccccn1)CC1CCCO1 (stereo not shown) [CBK306820],72.7319
25,S=C1NC2c3ccccc3OC3(CCCCC23)N1 (stereo not shown) [CBK288506],31.9616
26,Cc1ccc(-n2c(SCC(=O)N3CCC(C(=O)O)CC3)nc3ccccc3c2=O)cc1C [CBK297540],91.5702
